Test results: PubChem BioAssay AID504332 (National Center for Advancing Translational Sciences (NCATS), 2011)
Hit rate of the full screen: of about 350,000 compounds, about 31,000 (8.9%) were called active. The inconclusive results got no clear call from the source; some entries with a clear call stand among them for comparison. Calls come from the whole dose curve; as a rule, active = well fitted inhibition curve with a large enough effect; inconclusive = small, poorly fitted or top-dose-only effect; inactive = no such curve, though single readings can be large or run the other way. Where the call is inconclusive, the potency comes from a doubtful curve fit.

What follows are compounds tested against Histone-lysine N-methyltransferase EHMT2 (Homo sapiens) (UniProt Q96KQ7) (assay: qHTS Assay for Inhibitors of Histone Lysine Methyltransferase G9a). Conditions: G9a H3K9 monomethylation, AlphaScreen, 2 h; activity, negative = inhibition: at 59 µM (top of the series) unless noted.
Outline: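 Enzyme 20 nM + cpd, 15 min RT; add b-H3K9 pep 500 nM / SAM 20 uM; 2 h RT; anti-H3K9me1 Ab 0.5 ug/mL + SA donor / anti-rabbit acceptor beads 20 ug/mL each, 10 min; AlphaScreen read.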
% is set by controls: 0 for no effect and ±100 for the full control effect; potency is the fitted concentration of half-maximal effect; tags give direction and shape of the fitted curve.
Note: nearly all actives have a fitted effect of over 75% in size.

Sequence of UniProt Q96KQ7 (Q96KQ7 whole entry, looked up): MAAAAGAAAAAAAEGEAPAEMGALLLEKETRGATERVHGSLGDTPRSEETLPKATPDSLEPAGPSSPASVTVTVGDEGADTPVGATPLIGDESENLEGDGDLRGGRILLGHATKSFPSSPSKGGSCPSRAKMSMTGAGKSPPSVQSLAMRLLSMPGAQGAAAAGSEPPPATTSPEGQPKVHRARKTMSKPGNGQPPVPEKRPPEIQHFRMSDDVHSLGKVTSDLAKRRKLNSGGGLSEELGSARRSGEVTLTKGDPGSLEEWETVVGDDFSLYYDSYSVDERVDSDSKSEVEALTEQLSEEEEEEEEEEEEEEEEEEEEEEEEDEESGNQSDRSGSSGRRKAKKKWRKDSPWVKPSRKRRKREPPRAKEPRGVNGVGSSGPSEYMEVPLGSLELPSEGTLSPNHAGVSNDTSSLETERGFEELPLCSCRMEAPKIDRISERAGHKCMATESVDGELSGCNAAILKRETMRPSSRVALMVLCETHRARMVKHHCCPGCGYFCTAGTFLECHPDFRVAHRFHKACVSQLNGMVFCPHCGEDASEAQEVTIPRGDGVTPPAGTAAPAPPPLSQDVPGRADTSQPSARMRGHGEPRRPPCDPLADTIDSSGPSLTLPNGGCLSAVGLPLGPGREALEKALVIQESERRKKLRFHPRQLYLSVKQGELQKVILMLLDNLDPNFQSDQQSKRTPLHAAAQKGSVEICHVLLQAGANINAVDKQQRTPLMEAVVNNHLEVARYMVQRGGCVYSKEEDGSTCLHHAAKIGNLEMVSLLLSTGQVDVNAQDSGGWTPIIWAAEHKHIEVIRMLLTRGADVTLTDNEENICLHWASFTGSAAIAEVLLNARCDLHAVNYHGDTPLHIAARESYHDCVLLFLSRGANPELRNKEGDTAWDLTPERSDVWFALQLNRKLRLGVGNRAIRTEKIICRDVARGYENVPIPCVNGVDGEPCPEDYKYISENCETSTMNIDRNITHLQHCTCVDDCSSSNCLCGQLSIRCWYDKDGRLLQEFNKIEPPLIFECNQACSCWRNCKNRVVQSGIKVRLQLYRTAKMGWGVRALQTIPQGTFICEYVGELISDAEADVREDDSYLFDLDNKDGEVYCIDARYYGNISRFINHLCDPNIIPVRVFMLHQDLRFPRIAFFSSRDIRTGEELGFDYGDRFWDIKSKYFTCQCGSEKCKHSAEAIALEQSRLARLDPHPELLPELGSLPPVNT

| SMILES | Potency | activity, negative = inhibition |
| --- | --- | --- |
| O=C(CCN1C(=O)C2C3C=CC(C3)C2C1=O)Nc1ccccn1 (stereo not given) | inactive | – |
| Cc1cc(C)n(C(=O)CNC(=O)c2ccco2)n1 | active: 70.8 µM | – |
| Cc1cc(N2CCOCC2)ccc1/C=C\[N+](=O)[O-] | active: 6.31 µM | – |
| CCOC(=O)C1CCCN(Cc2ccc3c(c2)OCO3)C1 (stereo not given) | active: 8.91 µM | – |
| N#Cc1nc(COc2ccc(F)cc2)oc1N1CCCCC1 | inconclusive: 79.4 µM [inhibitor, single point] | – |
| CCc1ccc(S(=O)(=O)O)cc1 | – | inactive: -46.6% [at 12.7 µM] |
| C#CCOCCOCCOCCNc1nc(N2CCN(C(=O)[C@H]([C@@H](C)CC)n3cc([C@@H](N)CO)nn3)CC2)nc(N2CCN(C(=O)[C@H](Cc3cc4ccccc4[nH]3)n3cc([C@@H](N)C(C)CC)nn3)CC2)n1 (stereo not given in full) | – | inconclusive: -78.7% [inhibitor] |
| COc1ccccc1-n1c(SCC(=O)c2ccc(O)cc2O)nc2cc([N+](=O)[O-])ccc21 | inconclusive: 25.1 µM [inhibitor, single point] | – |
| CCOc1ccccc1N(CC)C(=O)Cn1ncc2c([nH]c3ccccc32)c1=O | inactive | – |
| CCOc1ccccc1NC(=O)C(OC(=O)c1ccccc1O)c1ccccc1 (stereo not given) | inactive | – |
| Cc1ccc(C)c(COC(=O)CCN=C2NS(=O)(=O)c3ccccc32)c1 | inconclusive: 79.4 µM [inhibitor, partial curve] | – |
| COc1cccc(CNC(=O)c2ccc3c(c2)c(C)c(C)n3Cc2ccccc2)c1 | inconclusive: 20 µM [inhibitor, partial curve, poor fit] | – |
| COc1cc(Cl)c(C)cc1NC(=O)C1CCN(c2nc3ccccc3n3cccc23)CC1 | inconclusive: 35.5 µM [inhibitor, partial curve, poor fit] | – |
| CCOC(=O)[C@@H](N)CS | inconclusive: 1.78 µM [inhibitor, full curve] | – |
| Cc1cc(-c2nc3c4c5c(sc4[nH]c(=O)n3n2)CCC5)c(C)o1 | – | inconclusive: -77.1% [inhibitor] |
| O=C(COC(=O)/C=C/c1ccco1)NCc1ccc2c(c1)OCO2 | active: 56.2 µM | – |
| O=C(CCS(=O)(=O)c1ccc(Br)s1)Nc1ccccc1Br | active: 50.1 µM | – |
| COc1ccc(S(=O)(=O)Nc2cccc(-c3ccc(N4CCCC4)nn3)c2)c(OC)c1 | active: 7.94 µM | – |
| O=C(c1ccccc1)N1CCN(CCc2ccncc2)CC1 | inactive | – |
| Cc1cc(OCC(=O)O)c2cccc(C)c2n1 | inconclusive: 31.6 µM [inhibitor, single point] | – |
| COC(=O)C1CSc2[nH]c(=O)sc2C1c1ccccc1 (stereo not given) | active: 56.2 µM | – |
| COc1ccc(-n2nc3c(c2NC(=O)c2ccco2)CS(=O)(=O)C3)cc1 | inconclusive: 79.4 µM [inhibitor, single point] | – |
| CCN(CC)S(=O)(=O)c1ccc(O)c(NC(=O)c2ccc(N3CCOCC3)c([N+](=O)[O-])c2)c1 | active: 7.08 µM | – |

| SMILES | Potency | activity, negative = inhibition |
| --- | --- | --- |
| COc1ccc(NS(=O)(=O)c2cc(NC(=O)C3CCCO3)ccc2N2CCCC2)cc1 (stereo not given) | active: 25.1 µM | – |
| Clc1cccc(-c2ccc(CNCCSc3nnnn3-c3ccccc3)o2)c1 | inconclusive: 20 µM [inhibitor, partial curve, poor fit] | – |
| Cc1ccc(NC(=O)CCSc2nnnn2-c2ccc3c(c2)OCO3)cc1C | inconclusive: 63.1 µM [inhibitor, partial curve, poor fit] | – |
| CCN(CC(=O)Nc1cc(S(=O)(=O)N2CCCCC2)ccc1Cl)Cc1ccccc1 | inconclusive: 31.6 µM [inhibitor, partial curve, poor fit] | – |
| Cc1noc(NC(=O)c2ccccc2)c1C#N | inconclusive: 7.94 µM [inhibitor, partial curve, poor fit] | – |
| Cc1cccc(-n2c(C)cc(/C=N/O)c2C)c1 | inactive | – |
| O=C(c1ccccn1)N1N=C2/C(=C/c3ccc(F)cc3)CCCC2C1c1ccc(F)cc1 (stereo not given) | inconclusive: 39.8 µM [inhibitor, partial curve] | – |
| Cc1ccc(NC(=O)COC(=O)/C(=C/c2cccs2)c2cccs2)cc1S(=O)(=O)N(C)C | inconclusive: 89.1 µM [inhibitor, single point] | – |
| Cc1ccc(Nc2nc(CSc3nnnn3C)cs2)cc1 | – | inconclusive: -57.6% [inhibitor] |
| O=C(NC12CC3CC(CC(C3)C1)C2)C1=COCCO1 | inconclusive: 89.1 µM [inhibitor, single point] | – |
| CS(=O)(=O)N1CCC(C(=O)N2CCN(Cc3ccccc3)CC2)CC1 | inconclusive: 89.1 µM [inhibitor, partial curve, poor fit] | – |
| Cc1c(C(=O)Nc2cccc(C(F)(F)F)c2)oc2ccc3c(c12)C(=O)CC(C)(C)O3 | inactive | – |
| CCC(=O)N1c2ccccc2CC1C(=O)NCCc1ccc(OC)c(OC)c1 (stereo not given) | inactive | – |
| O=C(CCNS(=O)(=O)c1c(Cl)cccc1Cl)OCC(=O)c1ccccc1 | inconclusive: 25.1 µM [inhibitor, single point] | – |
| O=C(OCc1cc2ccccc2[nH]c1=O)c1ccccc1 | inconclusive: 89.1 µM [inhibitor, single point] | – |
| O=C(CCSc1ccccc1)NC1CCCC1 | inconclusive: 1.12 µM [inhibitor, full curve, poor fit] | – |
| Cc1ccc(S(=O)(=O)N2CCN(C(=O)COC(=O)c3oc4ccccc4c3C)CC2)cc1 | inconclusive: 79.4 µM [inhibitor, partial curve, poor fit] | – |
| Cc1cc(F)ccc1NCc1ccc([N+](=O)[O-])cc1 | inconclusive: 28.2 µM [inhibitor, partial curve, poor fit] | – |
| Cc1ccc(C#N)c(SCC(=O)Nc2nccs2)n1 | inconclusive: 44.7 µM [inhibitor, partial curve, poor fit] | – |
| CC(C)Oc1cccc(-c2cc(C(=O)NC(=S)N(C)c3ccccc3C(=O)O)c3ccccc3n2)c1 | active: 22.4 µM | – |
| COc1ccc(-c2c(C)nn(Cc3ccccc3)c2N)cc1 | active: 44.7 µM | – |
| Cn1c(=O)oc2cc(S(=O)(=O)NCCC(=O)Nc3ccc(F)cc3F)ccc21 | inactive | – |
